# Source: paper PMC4336329 (PLoS ONE, 2015)
# About 2,200 (0.71%) of roughly 310,000 compounds showed an effect of 50% or more. Effects have a minus sign here. Some of the results follow.
# Target: human ether-à-go-go-related gene (hERG) potassium channel (human, UniProt Q12809)
# Experiment: primary screen, population patch clamp on CHO cells stably expressing hERG
# human ether-à-go-go-related gene (hERG) potassium channel, sequence (Q12809 whole entry, looked up): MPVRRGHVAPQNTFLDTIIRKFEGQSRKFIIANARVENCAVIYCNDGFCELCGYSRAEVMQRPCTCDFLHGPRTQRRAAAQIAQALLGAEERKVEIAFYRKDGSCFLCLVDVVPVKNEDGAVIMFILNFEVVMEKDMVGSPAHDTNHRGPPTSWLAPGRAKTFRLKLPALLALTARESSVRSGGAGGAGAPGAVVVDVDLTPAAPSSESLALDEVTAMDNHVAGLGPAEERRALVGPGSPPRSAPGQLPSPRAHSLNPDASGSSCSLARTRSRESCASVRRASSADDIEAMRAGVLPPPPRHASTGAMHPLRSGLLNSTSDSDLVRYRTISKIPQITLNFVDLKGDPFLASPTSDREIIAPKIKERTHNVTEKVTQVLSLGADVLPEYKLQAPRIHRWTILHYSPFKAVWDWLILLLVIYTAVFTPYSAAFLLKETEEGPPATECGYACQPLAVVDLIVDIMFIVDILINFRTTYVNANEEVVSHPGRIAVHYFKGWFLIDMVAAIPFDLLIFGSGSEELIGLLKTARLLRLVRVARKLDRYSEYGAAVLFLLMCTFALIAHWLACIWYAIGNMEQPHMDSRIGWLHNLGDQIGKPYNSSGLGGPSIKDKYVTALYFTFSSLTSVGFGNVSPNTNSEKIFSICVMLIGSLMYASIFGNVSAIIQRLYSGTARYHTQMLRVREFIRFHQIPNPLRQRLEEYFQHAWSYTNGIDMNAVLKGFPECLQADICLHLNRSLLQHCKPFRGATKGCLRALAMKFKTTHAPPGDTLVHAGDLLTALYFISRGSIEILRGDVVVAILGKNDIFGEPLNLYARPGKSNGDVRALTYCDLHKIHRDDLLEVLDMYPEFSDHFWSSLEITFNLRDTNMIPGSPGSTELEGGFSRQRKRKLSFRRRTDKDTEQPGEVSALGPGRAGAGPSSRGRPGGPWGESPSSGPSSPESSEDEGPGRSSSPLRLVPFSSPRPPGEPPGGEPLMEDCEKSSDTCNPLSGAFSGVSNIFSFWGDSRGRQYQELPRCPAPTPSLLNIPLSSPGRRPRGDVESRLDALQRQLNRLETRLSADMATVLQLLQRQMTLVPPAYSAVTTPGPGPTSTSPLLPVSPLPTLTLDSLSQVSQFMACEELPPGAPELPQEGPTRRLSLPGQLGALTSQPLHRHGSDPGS
row,SMILES,"hERG current change (%, negative = inhibition) at 1uM [%]"
1,CCOC(=O)c1c(C)[nH]c(C(=O)CSc2nnc(-c3ccncc3)n2CC)c1C,4.02
2,CC(=O)Nc1cc(-c2ccc(F)cc2)[nH]n1,12.2
3,COCCNC(=O)CSc1nc2ccccc2c(=O)n1CCC(=O)NCCc1ccc(OC)c(OC)c1,10.4
4,CC(=O)Nc1ccc(NC2(C)C(=O)c3ccccc3C2=O)cc1,6.75
5,Nc1nc(C23CC4CC(CC(C4)C2)C3)[nH]c(=O)n1,17
6,Cc1cccc2cc(C(c3nnnn3C(C)(C)C)N(Cc3ccco3)CC3CCCO3)c(=O)[nH]c12 (centres unmarked),-5.57
7,COc1ccc(NC(=O)CSc2nnc(Cn3c(=O)sc4ccccc43)n2C)c(OC)c1,-2.58
8,COc1ccc(CNC(=O)CN2CCN(c3cccc(C)c3C)CC2)cc1,7.33
9,CCC(=O)N(CC)c1nc(-c2cc(OC)ccc2OC)cs1,12.9
10,NNC(=O)COc1ccc(-c2n[nH]c(C(F)(F)F)c2-c2ccc(Br)cc2)c(O)c1,11.8
11,Cc1cc(OCC(=O)NCc2nc(-c3ccccc3)no2)c(C)cc1Br,11.9
12,NC(=O)CC(NC(=O)Cc1ccc(Cl)cc1)c1ccc(NCCc2ccccc2F)c([N+](=O)[O-])c1 (centres unmarked),2.88
13,c1ccc(OCc2nnc3sc(C4COc5ccccc5O4)nn23)cc1 (centres unmarked),4.75
14,c1ccc(OCc2nn3c(C4CCCCC4)nnc3s2)cc1,-10.7
15,CC(C)Oc1cccc(C(=O)N2CCCC2)c1,9.63
16,CCOC(=O)c1ccc(CSc2nncn2N)o1,16
17,O=C(Nc1ccccc1N1CCOCC1)c1ccc(N2CCCC2=O)cc1,7.28
18,CSc1nc2sc3c(c2c(=O)[nH]1)CCCC3,14.3
19,Cc1ccc(N2CCCCn3c2nc2c3c(=O)[nH]c(=O)n2C)cc1,5.04
20,Cc1nc2c(C#N)c(-c3ccc(Cl)cc3)ccn2n1,14.8
21,CCN(CC)Cc1c(C(=O)N2CCc3ccccc3C2)nc2ccc(Cl)cn12,-8.42
22,CSc1ncc(C(=O)Nc2ccccc2C)c(C)n1,11.4
23,O=C([O-])c1ccccc1-[n+]1c(-c2ccccc2)cc(-c2ccccc2)cc1-c1ccccc1,6.47

row,SMILES,"hERG current change (%, negative = inhibition) at 1uM [%]"
1,Cc1ccc[n+](CC(=O)Nc2c(Cl)cc(Cl)cc2Cl)c1.[Cl-],10.4
2,CC(C)CCN1CCN(Cc2cc3ccccc3[nH]2)CC1CCO (centres unmarked),-2.38
3,O=C(NCc1ccccc1Cl)c1ccc[nH]1,-8.17
4,Cc1ccc2nc(C)n(-c3ccc(F)cc3)c(=O)c2c1,19
5,C[C@@H]1CCC[C@]2(O[C@H](CCO)C[C@H](O)[C@H]2O)O1,9.07
6,CCOC(=O)CCc1c(C)n[nH]c1C,6.58
7,CC(=O)NC1=NN(C(C)=O)C(c2ccc(C)cc2)S1 (centres unmarked),23.1
8,COc1ccc(Br)cc1S(=O)(=O)Nc1ncn[nH]1,12.4
9,COc1cc(S(=O)(=O)N2CCC(C(N)=O)CC2)c(C)cc1C,15
10,Cc1ccc(CN2C3CCCC2CC(NC(=S)NCc2ccccc2)C3)cc1 (centres unmarked),-54.4
11,COc1ccc(CCNc2nc(-c3sc(C)nc3C)cs2)cc1OC.O=C(O)C(=O)O,-4.56
12,Cc1onc(-c2ccccc2Cl)c1C(=O)NC(=S)Nc1ccc(C(C)C)cc1,15.3
13,CC(C)Cc1nnc(NC(=O)c2cc([N+](=O)[O-])ccc2N2CCOCC2)s1,-8.05
14,COc1ccc(NS(=O)(=O)c2cccc(C(=O)NNC(=O)CNC(=O)c3ccc(C)cc3)c2)cc1,10.4
15,OC(c1ccccc1)C(O)c1ccccc1 (centres unmarked),17.2
16,O=C(c1ccccc1Cc1ccccc1)N1CCN(S(=O)(=O)c2ccccc2[N+](=O)[O-])CC1,3.17
17,CC(C)Oc1ccc(C2CC(=O)N(c3ccc(C(=O)O)cc3)C2=O)cc1 (centres unmarked),13.5
18,CCOC(=O)C1(Cc2ccc(Cl)cc2)CCN(C2CCC2)CC1,-18.9
19,CCOCCCn1c(SC(C(=O)Nc2cc(C)ccc2C)c2ccccc2)nnc1-c1ccc(Cl)cc1 (centres unmarked),13.5
20,COc1cccc(NC(=O)CSc2nc3c([nH]c4ccccc43)c(=O)n2C)c1,13.5
21,CCOC(=O)C1CCN(C(=O)CSc2n[nH]c(=O)[nH]c2=O)CC1,15.9
22,CS(=O)(=O)N(CC(=O)N1CCCC1)Cc1ccc(Cl)cc1,0.0292
23,COc1ccc(C(=O)CC(=O)c2ccccc2O)cc1,16.4

row,SMILES,"hERG current change (%, negative = inhibition) at 1uM [%]"
1,Cc1nn(C(C)(C)C)c(OC(=O)c2ccc3c(c2)OCO3)c1S(=O)(=O)c1ccccc1,8.74
2,CCc1ccc(C(=O)N2CCN(c3ccc(NC(=O)c4cccnc4)cc3)CC2)cc1,-26.9
3,CCCCNc1nc(Nc2ccc(C)c(Cl)c2)c2cnn(C)c2n1,9.96
4,CCCCCCC/C(C)=N/NC(=O)CC(=O)NCCc1ccccc1,7.45
5,CCCc1cc(C(=O)N(C)CC(=O)Nc2ccc(OCC)c(OCC)c2)sc1C,-2.22
6,CCCS(=O)(=O)c1nc(S(=O)(=O)c2ccc(C)cc2)c(N2CCC(C)CC2)s1,15.5
7,Cc1ccc(/C([O-])=C(/C(=S)NCc2ccccc2)[n+]2ccccc2)cc1[N+](=O)[O-],4.1
8,CC(=O)C1=C(C)OC(N)=C(C#N)C1c1cc2cc(C)c(C)cc2nc1Cl (centres unmarked),5.85
9,O=S(=O)(NCC1CCCO1)c1ccc(-c2ccc(Cl)cc2)cc1 (centres unmarked),12.8
10,C#CCOc1ccc2c(c1)c(C(C)=O)c(C)n2Cc1ccccc1,8.63
11,COc1ccc(N/C=C/C(=O)c2ccc(Cl)cc2)cc1,1.77
12,CCc1cccc(C)c1NC(=O)c1cc(=O)[nH]c2ccc(S(=O)(=O)N3CCOCC3)cc12,6.57
13,CCN(CC)CCNC(=O)c1ccc(Sc2ccc(Cl)cc2)c(NC(C)=O)c1,-10.8
14,CCn1c(CNc2ccccc2Cl)nnc1SCC(=O)NCc1ccccc1,-0.207
15,CC(=O)C1=C(c2ccccc2)OC(N)=C(C#N)C1c1ccccc1F (centres unmarked),5.71
16,Cc1noc(C)c1COc1cccc(C(=O)Nc2ccccc2N2CCOCC2)c1,1.23
17,O=C(COC(=O)c1cnccn1)Nc1ncc(Cl)cc1Cl,8.51
18,C=C1CCN(C(CC(C)C)C(=O)OC)S(=O)(=O)c2ccccc21 (centres unmarked),9.71
19,CCc1ccc(C(=O)N2CCCC2)s1,20.8
20,O=S(=O)(Nc1cccnc1)c1cccs1,18.1
21,CC(C)COc1ccc(C(=O)Nc2ccccc2[N+](=O)[O-])cc1,16.2
22,COc1cc(S(=O)(=O)N(Cc2ccccn2)Cc2ccco2)ccc1-n1cnnn1,-0.747
23,CCOC(=O)C1C(=O)OC(C)(C)C1C(C)C(=O)c1ccc(OC)cc1 (centres unmarked),4.21

row,SMILES,"hERG current change (%, negative = inhibition) at 1uM [%]"
1,Cc1oc(/C=N/NC(=O)CN(c2ccccc2Cl)S(C)(=O)=O)cc1Br,5.86
2,C(/CCc1ccccc1)=N\Nc1nc2ccccc2[nH]1,2.85
3,Cc1ccc(OCC(=O)NCCCNC(=O)c2ccccn2)cc1,4.73
4,CC1CCCCN1C(=O)c1ccc(N2CC3CC(C2)c2cccc(=O)n2C3)c([N+](=O)[O-])c1 (centres unmarked),1.91
5,CCOC(=O)C1CCN(c2ncnc3c2nnn3Cc2ccccc2Cl)CC1,7.99
6,CCCN1CCC(CCOc2ccccc2)(C(=O)OCC)CC1,-2.96
7,CCOC(=O)Cn1c(C)cc(=O)c2cccc(C)c21,3.9
8,O=C(NC(=S)N1CCN(c2nc(-c3ccccc3)cs2)CC1)c1cccnc1,13.7
9,O=C1CS/C(=N/N=C/c2ccccc2OS(=O)(=O)c2ccccc2)N1,11.7
10,CCN(CC(=O)NCc1cccs1)C(=O)c1ccccc1Cl,1.38
11,O=C(NCCCNc1ccc(C(F)(F)F)cc1[N+](=O)[O-])c1ccc(F)cc1,0.812
12,O=C1CSC(=Nc2cccc(Cl)c2Cl)N1Cc1cccnc1,1.66
13,CC(C)CNC(=O)CN1C(=O)NC2(CCCc3ccccc32)C1=O (centres unmarked),9.2
14,O=c1c2cn[nH]c2[nH]c(=S)n1-c1ccccc1,14.3
15,COC(=O)CC(C(=O)Nc1cc(C(=O)OC)cc(C(=O)OC)c1)N1CCN(C)CC1 (centres unmarked),17.1
16,COc1ccc(S(=O)(=O)N(C)C(C)CCc2ccco2)cc1 (centres unmarked),5.09
17,COc1ccc(C(O)Cn2c(=N)n(CCCN(C)C)c3ccccc32)cc1.Cl (centres unmarked),2.15
18,COc1cccc(OC)c1C(=O)Nc1cc(Cl)ccc1N1CCOCC1,2.33
19,O=C1C=C(c2cc3ccccc3o2)C[C@@H](c2ccc(F)cc2)C1,5.22
20,O=C(Nc1ccc2c(c1)OCCO2)c1cccc2nc3ccccc3nc12,14.7
